{
  "source": "PubChem BioAssay AID1347417",
  "about": "(National Center for Advancing Translational Sciences (NCATS), 2020)",
  "note": "Out of some 120,000 compounds screened, about 5,300 (4.4%) were called active. Inconclusive results, whose numbers are uncertain, are shown with a selection of clear calls. Calls come from the whole dose curve; as a rule, active = well fitted inhibition curve with a large enough effect; inconclusive = small, poorly fitted or top-dose-only effect; inactive = no such curve, though single readings can be large or run the other way. A potency beside an inconclusive call is a rough fit, not a confirmed value. Potency is the fitted concentration of half-maximal effect; tags give direction and shape of the fitted curve.",
  "data": [
    {"assay": "qHTS Primary assay for Inhibitors of Plasmodium falciparum Dd2 growth in vitro; note: nearly all actives have a fitted effect of over 65% in size;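 for activity, negative = inhibition: plate controls were DMSO vehicle for no effect and reference drug for full effect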", "settings": "P. falciparum Dd2 growth, SYBR Green, 72 h; activity, negative = inhibition: at 28.9 µM (top of the series) unless noted; series mostly up to 28.9 µM", "in_short": "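Readout: SYBR Green fluorescence, 485 nm excitation, 535 nm emission, after ~16 h lysis at 37C. Before that, Dd2-infected red cells (2.5% hematocrit) grew 72 h with compound, 29 uM top final concentration.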", "values": [
      {"molecule": "O=C1COCC2(CN1)CN(c1ccc(Oc3ccccc3)cc1)C2", "Potency": "inactive"},
      {"molecule": "O=C(O)COc1ccc(-c2nccc3c2C(=O)N(Cc2c[nH]c4ccccc24)CC(CNC(=O)c2cccc(Cl)c2)O3)cc1", "note": "(centres undefined)", "Potency": "inconclusive: 17.8 µM [inhibitor, single point]"},
      {"molecule": "COc1ccccc1CN1CC(c2noc(CCC(=O)c3ccc(C)cc3)n2)CC1=O", "note": "(centres undefined)", "Potency": "inconclusive: 15.8 µM [inhibitor, single point]"},
      {"molecule": "O=C(COc1ccccc1)Nc1ccc2c(N3CCOCC3)ncnc2c1", "Potency": "inconclusive: 12.6 µM [inhibitor, single point]"},
      {"molecule": "C[S+](=O)([O-])Nc1cccc(Nc2cnc3ccc(-c4ccccc4)nn23)c1", "Potency": "active: 12.6 µM"},
      {"molecule": "CC(=O)N1CCN(C[C@@H]2C=C(C)[C@H](Cc3nnc(-c4cccnc4)o3)C[C@H]2C(C)C)CC1", "Potency": "active: 7.94 µM"},
      {"molecule": "CCn1cnnc1-c1nn(C)c2c1CN(C(=O)c1n[nH]c3c1CCCCCC3)CC2", "Potency": "inconclusive: 2 µM [inhibitor, single point]"},
      {"molecule": "Cc1noc(C)c1-c1cc2cc(C(C)C)oc2c(NCc2cccnc2)n1", "Potency": "inconclusive: 3.98 µM [inhibitor, single point]"},
      {"molecule": "N#Cc1cccc(CN2CCCC(c3[nH]ccc3C(N)=O)C2)c1", "note": "(centres undefined)", "Potency": "inconclusive: 10 µM [inhibitor, partial curve]"},
      {"molecule": "Cc1ccc(-n2c(=O)c3c(c4cc(C)ccc4n3C)n(CC(=O)NCC3CCCO3)c2=O)cc1", "note": "(centres undefined)", "Potency": "inconclusive: 17.8 µM [inhibitor, partial curve, poor fit]"},
      {"molecule": "Cc1noc(C)c1Cc1ccc(C(=O)N2[C@H]3CC[C@@H]2c2cnc(-c4ccccc4)nc2C3)o1", "Potency": "active: 0.631 µM"},
      {"molecule": "CCn1c(C(=O)N2CCC(C(=O)N3CCN(c4ccc(OC)cc4)CC3)CC2)cc2sccc21", "Potency": "inconclusive: 20 µM [inhibitor, single point]"},
      {"molecule": "COc1ccc(CN2Cc3[nH]cnc3C[C@H]2C(=O)NCc2ccccc2)c2ccccc12", "Potency": "inconclusive: 2.51 µM [inhibitor, full curve, poor fit]"},
      {"molecule": "CCc1ccccc1N1CC(c2nc3ccccc3n2CCOc2ccc(Cl)c(C)c2)CC1=O", "note": "(centres undefined)", "Potency": "inconclusive: 10 µM [inhibitor, single point]"},
      {"molecule": "CCc1noc(-c2nc(-c3ccc(OC)cc3)no2)n1", "Potency": "inactive"},
      {"molecule": "CN(C)c1ccc(C(=O)Nc2c(C(=O)NC(C)(C)C)oc3ccccc23)cc1", "Potency": "inconclusive: 11.2 µM [inhibitor, single point]"},
      {"molecule": "Cc1noc(C)c1Cn1cc2c3c(cccc31)[C@H](CC(C)C)N[C@H](C(=O)NC1CCC1)C2", "Potency": "inconclusive: 3.55 µM [inhibitor, single point]"},
      {"molecule": "O=C1NCC2(CCN(Cc3ccccc3)CC2)Oc2ccccc21", "activity, negative = inhibition": "inconclusive: -82.2% [inhibitor]"},
      {"molecule": "Cc1noc(C)c1Cc1ccc(C(=O)N2CCCCCCN(C)C(=O)[C@@H]3CCC[C@@H]32)o1", "Potency": "inconclusive: 7.08 µM [inhibitor, partial curve]"},
      {"molecule": "Cc1nc2cc(CNC(=O)CN3C(=O)CN(C)C3=O)ccc2n1C", "Potency": "inactive"},
      {"molecule": "CCO[C@H]1CN(C(=O)CCc2ccc(-c3ccc(Cl)cc3)[nH]2)C[C@@H]1O", "Potency": "inactive"},
      {"molecule": "CC(=O)c1cccc(NC(=O)CCc2nc3cccnc3n2Cc2cccs2)c1", "Potency": "inconclusive: 12.6 µM [inhibitor, partial curve]"},
      {"molecule": "O=C(c1cccc(Cl)c1)N1CCC2(CC1)NCc1ccccc1NC2=O", "Potency": "inactive"},
      {"molecule": "Cc1cc2ncc(C(=O)NCc3cccs3)cn2n1", "Potency": "inactive"},
      {"molecule": "CCOc1ccc(Nc2nc3c(S(=O)(=O)c4ccc(CC)cc4)nnn3c3ccc(Cl)cc23)cc1", "Potency": "inconclusive: 1.41 µM [inhibitor, partial curve, poor fit]"},
      {"molecule": "O=C(c1ccccc1Cl)N1CCC(N(Cc2ccccc2)C2CCOCC2)CC1", "Potency": "inconclusive: 5.01 µM [inhibitor, partial curve, poor fit]"},
      {"molecule": "CCC(=O)N1CCc2c(sc3ncnc(NCCc4ccccc4)c23)C1", "Potency": "inactive"},
      {"molecule": "CCNC(=O)NC1(Cc2cc(-c3ccc(OC)cc3)on2)COC1", "Potency": "inconclusive: 10 µM [inhibitor, partial curve]"},
      {"molecule": "COc1cccc(C(=O)N2CCN(c3cc(-c4cccs4)[nH]n3)CC2)c1OC", "Potency": "inconclusive: 1.78 µM [inhibitor, partial curve, poor fit]"},
      {"molecule": "COC(=O)CNC(=O)N1CC[C@H]2C(=O)NCCCCCCN(Cc3ccncc3)[C@@H]2C1", "Potency": "inactive"},
      {"molecule": "COc1ccc(C2=NS(=O)(=O)N(C)C(C(=O)Nc3ccc(OC(F)(F)F)cc3)=C2)cc1", "Potency": "inactive"},
      {"molecule": "CCOc1ccc2c(n1)CCN(C(=O)COc1cccc(C)c1)C2", "Potency": "inconclusive: 7.08 µM [inhibitor, partial curve, poor fit]"},
      {"molecule": "O=C1NCCCCCCN(C(=O)Cc2ccccc2)[C@@H]2C[C@@H](c3nc(-c4cccnc4)no3)C[C@H]12", "Potency": "inactive"},
      {"molecule": "COc1ccccc1CNC(=O)CCCCn1c(=O)c2ccccc2n(Cc2ccccc2C)c1=O", "Potency": "inconclusive: 1 µM [inhibitor, full curve]"},
      {"molecule": "CC(C)(C)C1CCc2c(sc(NC(=O)c3ccccc3F)c2C(=O)NCc2ccco2)C1", "note": "(centres undefined)", "Potency": "inconclusive: 10 µM [inhibitor, single point]"},
      {"molecule": "COc1ccc(C(=O)Nc2nc3c(s2)C[C@@H]2[C@](C)(CO)[C@H](O)CC[C@@]2(C)[C@@H]3CC(=O)NCc2ccco2)cc1", "Potency": "active: 2 µM"},
      {"molecule": "CC(=O)c1cccc(NC(=O)c2ccc(Cl)c(S(=O)(=O)N3CCOCC3)c2)c1", "Potency": "inconclusive: 11.2 µM [inhibitor, single point]"},
      {"molecule": "COc1ccccc1-c1nc(C(=O)NCc2cccnc2)n2ccncc12", "Potency": "inconclusive: 7.94 µM [inhibitor, partial curve]"},
      {"molecule": "COc1ccc(-c2nc3scc(CCNS(=O)(=O)c4c(C)cc(C)cc4C)n3n2)cc1OC", "Potency": "inconclusive: 20 µM [inhibitor, partial curve, poor fit]"},
      {"molecule": "COc1ccc(CN2CCOC[C@H]2c2ncc(C(C)(C)C)[nH]2)cc1", "Potency": "inconclusive: 10 µM [inhibitor, partial curve, poor fit]"},
      {"molecule": "CC(=O)Nc1ccc(CN2C[C@H](O)C[C@H]2c2nc(-c3ccc(OC(F)(F)F)cc3)no2)cc1", "Potency": "inconclusive: 17.8 µM [inhibitor, single point]"},
      {"molecule": "COc1ccccc1C(=O)N1CCC(CC(=O)NC2CC2)C1", "note": "(centres undefined)", "Potency": "inactive"},
      {"molecule": "Cc1ccc(N2CCN(C(=O)c3c(C)oc4ncnc(N5CCCCC5)c34)CC2)c(C)c1", "Potency": "inconclusive: 11.2 µM [inhibitor, single point]"},
      {"molecule": "CCOC(=O)C1(Cc2ccccc2F)CCCN(C(=O)c2cccc(-n3cccn3)c2)C1", "note": "(centres undefined)", "Potency": "inactive"},
      {"molecule": "CC(=O)N1CCC(N[C@@H]2CO[C@H](CNS(=O)(=O)c3ccccc3)[C@H]2O)CC1", "Potency": "inactive"},
      {"molecule": "O=[S+]([O-])(c1ccncc1)c1nnn2c1nc(N1CCC(F)CC1)c1ccccc12", "Potency": "inconclusive: 17.8 µM [inhibitor, single point]"},
      {"molecule": "CCOc1ccccc1NC(=O)NCC(=O)N1CCCCCNC(=O)CC1c1ccccc1", "note": "(centres undefined)", "Potency": "inconclusive: 17.8 µM [inhibitor, single point]"},
      {"molecule": "O=C(Cc1ccccc1)N1CCC2(CC1)CN(c1ncccn1)CC2CO", "note": "(centres undefined)", "Potency": "inactive"},
      {"molecule": "CCOc1ccccc1CN1CCC2(CCN(C(=O)OC)CC2)Oc2ccccc21", "Potency": "inconclusive: 1.78 µM [inhibitor, full curve, poor fit]"},
      {"molecule": "COc1ccc(-c2noc([C@@H]3CCCN3Cc3ccccc3OC)n2)cn1", "Potency": "inconclusive: 5.62 µM [inhibitor, full curve]"},
      {"molecule": "CCc1nc2c(c(-c3ccc(Cl)cc3)n1)CN(C(=O)Nc1ccc(Cl)cc1)CC2", "Potency": "inconclusive: 17.8 µM [inhibitor, single point]"},
      {"molecule": "O=C(NCCc1cnc[nH]1)c1cn(CCC2CCCCN2)nn1", "note": "(centres undefined)", "Potency": "inactive"},
      {"molecule": "Cn1nc(-c2ccc3ccccc3c2)cc1[C@H]1CN2CC[C@H]1C[C@@H]2COC(=O)Nc1ccccc1", "Potency": "inactive"},
      {"molecule": "COc1ccc(CC(=O)N2CC3(Cc4ccccc4N(C(C)=O)C3)C2)cc1", "Potency": "inactive"},
      {"molecule": "CCN1CCc2c(sc(-n3cccc3)c2C(C)NC(=O)Nc2cc(Cl)c(OC)cc2OC)C1", "note": "(centres undefined)", "Potency": "inconclusive: 20 µM [inhibitor, single point]"},
      {"molecule": "O=C(NCc1ccccc1)[C@@H]1COCC(=O)N1Cc1ccc(F)cc1", "Potency": "inactive"},
      {"molecule": "Cc1ccc(NC(=O)c2cc(S(=O)(=O)N3CCCCCC3)ccc2F)cc1F", "Potency": "inconclusive: 12.6 µM [inhibitor, single point]"},
      {"molecule": "O=C(CSc1nc(-c2ccccc2)no1)N1CCN(c2ccccc2)CC1", "Potency": "active: 10 µM"},
      {"molecule": "O=S(=O)(c1ccccc1C(F)(F)F)N1CC(c2nc(Cc3ccccc3)no2)C1", "Potency": "inconclusive: 20 µM [inhibitor, single point]"},
      {"molecule": "CCC(=O)N1c2ccccc2C(C)(c2ccccc2)CC1(C)C", "note": "(centres undefined)", "Potency": "inconclusive: 11.2 µM [inhibitor, partial curve, poor fit]"},
      {"molecule": "CN1CCN(C(=O)c2ccc3c(c2)N(Cc2ccc(F)cc2)C(=O)c2ccccc2S3=O)CC1", "note": "(centres undefined)", "Potency": "active: 3.98 µM"},
      {"molecule": "COc1ccc(-c2ccc3c(c2)C(=O)N2CCN(C(=O)NC4CCCCC4)C[C@@H]2C(=O)N3)cc1", "Potency": "inconclusive: 12.6 µM [inhibitor, single point]"},
      {"molecule": "COc1ccc(-c2noc(-c3cccn3CC(=O)Nc3ccc4c(c3)CCC4)n2)cc1F", "Potency": "inconclusive: 0.199 µM [inhibitor, full curve, poor fit]"},
      {"molecule": "CC(C)(C)OC(=O)N1CCC(c2c(C(=O)NCc3ccccc3)cnn2-c2ccc(F)cc2)CC1", "Potency": "inconclusive: 0.398 µM [inhibitor, partial curve, poor fit]"}
    ]}
  ]
}
